Measurements from article PMC9354671, “Novel interaction interfaces mediate the interaction between the NEIL1 DNA glycosylase and mitochondrial transcription factor A” (Frontiers in Cell and Developmental Biology, 2022).
These are yes or no findings as the source states them, for the method shown. Some binding calls cover weakened binding; strength is not graded here. For some assays here: Sequences can lack the tags named with a protein.

Amino acid sequences for entries named in this document (tags omitted). A change or cut given only in a name is not applied to a line headed by its entry. Chains listed by the source or under a name are the forms on record and can include a tag or linker. Residues count along the entry.
UniProt Q96FI4: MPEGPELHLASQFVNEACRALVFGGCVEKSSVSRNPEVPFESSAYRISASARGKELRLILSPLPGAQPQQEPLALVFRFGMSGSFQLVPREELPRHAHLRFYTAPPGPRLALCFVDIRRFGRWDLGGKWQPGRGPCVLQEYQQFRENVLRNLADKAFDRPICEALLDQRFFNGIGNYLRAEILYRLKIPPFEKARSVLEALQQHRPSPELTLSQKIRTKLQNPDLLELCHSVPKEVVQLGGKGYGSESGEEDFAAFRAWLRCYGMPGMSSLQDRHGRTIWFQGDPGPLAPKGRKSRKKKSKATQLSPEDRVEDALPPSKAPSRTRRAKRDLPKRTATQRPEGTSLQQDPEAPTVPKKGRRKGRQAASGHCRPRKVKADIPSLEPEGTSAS
GST-tagged NEIL1 polypeptide, amino acids 289–390: residues 289-390 of Q96FI4
GST-tagged NEIL1 polypeptide, amino acids 289–349: residues 289-349 of Q96FI4
GST-tagged NEIL1 polypeptide, amino acids 312–390: residues 312-390 of Q96FI4
GST-tagged NEIL1 polypeptide, amino acids 312–349: residues 312-349 of Q96FI4

T1: Flag-tagged TFAM (UniProt Q00059)
T1 sequence: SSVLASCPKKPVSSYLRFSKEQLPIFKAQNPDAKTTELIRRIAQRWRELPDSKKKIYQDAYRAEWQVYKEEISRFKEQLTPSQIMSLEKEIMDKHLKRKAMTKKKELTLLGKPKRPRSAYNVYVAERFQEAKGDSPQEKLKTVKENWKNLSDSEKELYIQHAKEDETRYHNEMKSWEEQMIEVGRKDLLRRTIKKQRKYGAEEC


Columns and labels:
Flag-tagged TFAM = biological target: T1, Flag-tagged TFAM; test: pull-down; reverse: Flag-tagged TFAM held on anti-FLAG M2 magnetic beads, NEIL1-FL or NEIL1-Δ100 as prey; with and without DNA; eluted with 3X Flag peptide, SDS-PAGE; both purified
[1] = biological target: full-length NEIL1 (NEIL1-FL), C-terminal His-tagged (human) (UniProt Q96FI4); test: SEC; NEIL1 and TFAM mixed 1:1, without DNA; Superdex 200; 20 mM HEPES pH 7.5, 300 mM NaCl, 10% glycerol, 1 mM DTT; both purified
[2] = biological target: full-length NEIL1 (NEIL1-FL), C-terminal His-tagged (human) (UniProt Q96FI4); test: condition: only 300 mM NaCl, without DNA; 190 µM each; SEC-MALS; SEC-MALS-SAXS in line, NEIL1 and TFAM without DNA; 190 µM each; 25 mM HEPES pH 7.4, 300 mM NaCl, 5% glycerol, 1 mM DTT; both purified
[3] = biological target: GST-tagged NEIL1 polypeptide, amino acids 289–349 (human) (UniProt Q96FI4); test: far-Western, overlay or dot blot; 50 pmol NEIL1 polypeptides separated by SDS-PAGE, on PVDF, denatured in 6M guanidine HCl and refolded; incubated with purified TFAM overnight; detected with anti-TFAM antibody; both purified
[4] = biological target: GST-tagged NEIL1 polypeptide, amino acids 289–390 (human) (UniProt Q96FI4); test: as above
[5] = biological target: GST-tagged NEIL1 polypeptide, amino acids 312–390 (human) (UniProt Q96FI4); test: as above
[6] = biological target: Flag-tagged, full-length NEIL1 (NEIL1-FL) (human) (UniProt Q96FI4); test: pull-down; Flag-tagged NEIL1-FL held on anti-FLAG M2 magnetic beads, TFAM as prey; 50 mM Tris-HCl pH 7.5, 10% glycerol, 50–300 mM NaCl/KCl; with and without 22-mer specific DNA or RNA, with and without Benzonase; 4°C; eluted with 3X Flag peptide, SDS-PAGE; both purified
[7] = biological target: GST-tagged NEIL1 polypeptide, amino acids 312–349 (human) (UniProt Q96FI4); test: condition: 1 pmol/ml TFAM (methods); 10 pmol/ml; far-Western, overlay or dot blot; 50 pmol NEIL1 polypeptides separated by SDS-PAGE, on PVDF, denatured in 6M guanidine HCl and refolded; incubated with purified TFAM overnight; detected with anti-TFAM antibody; both purified

Row | binding (Flag-tagged TFAM) | binding [2] | binding [3] | binding [4] | binding [5] | binding [6] | binding [7] | Molecule | binding [1]
1 | binds weakly |  |  |  |  |  |  | full-length NEIL1 (NEIL1-FL), C-terminal His-tagged (from UniProt Q96FI4 1-390) (enzyme) | 
2 |  | no binding | binds weakly | binds weakly | binds weakly | binds weakly | no binding | mitochondrial transcription factor A (TFAM) lacking the mitochondrial targeting sequence (natural protein, UniProt Q00059 43-246, looked up, theoretical MW 25.6 kDa; Printed domain limits: HMG-box A 43-122, linker 122-152, HMG-box B 152-222, C-terminal tail 222-246; Subcloned into pET30a from a full-length ORF plasmid; also called full-length TFAM monomer (lacking the N-terminal MTS); source: E. coli, purified (as Ngo et al., 2011)) SSVLASCPKKPVSSYLRFSKEQLPIFKAQNPDAKTTELIRRIAQRWRELPDSKKKIYQDAYRAEWQVYKEEISRFKEQLTPSQIMSLEKEIMDKHLKRKAMTKKKELTLLGKPKRPRSAYNVYVAERFQEAKGDSPQEKLKTVKENWKNLSDSEKELYIQHAKEDETRYHNEMKSWEEQMIEVGRKDLLRRTIKKQRKYGAEEC | no binding (condition: 300 mM NaCl, without DNA)
